Results on 78 compounds are retold here after publication PMC12040169 (PLOS Biology, 2025).

The list shows a part of the results.

This test relates to T1, C. trachomatis L2/434/Bu expressing GFP (CTL2-GFP).
T1 construct: L2/434/Bu GFP intracellular growth in HeLa cells
On the set-up: species or system HeLa; C. trachomatis total inclusion area by high-content imaging, normalised to DMSO. As to conditions: total inclusion area; 28.5 h, 10 µM; inhibitor. The method in brief:
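Host cell viability was gauged from Hoechst-stained nuclei counts, while chlamydial growth was taken from total inclusion area and inclusion number per well. Cells were fixed and imaged by high-content microscopy once bulk GFP and resorufin fluorescence had been measured.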
For the compound `CC(C)[C@@H](CO)Nc1nc(-c2cncnc2)cnc1N` [CBK063735], the “% of control remaining” value came to 163.86.
To `C/C(=N\Nc1cccc2cccnc12)C(C)(C)C` [CBK021957] belongs 87.6833; to `COc1cccc(NC(=O)NC(=O)C2CCN(C(C)C)CC2)c1` [CBK034798], 82.2925.
The figure for `O=C(Nc1ccncc1)c1cnc2cc(C(F)(F)F)ccc2c1O` [CBK116633T] is 83.0719; for `CSc1ccc(-n2cc(-c3ccc(F)cc3F)nn2)cc1` [CBK112979] it is 95.6854.
With `CC(C)c1ccccc1NC(=O)NC(=O)C1CCN(CCc2ccc(C#N)cc2)CC1` [CBK035010], the “% of control remaining” value is 93.1362.
The figure for `COC(=O)Nc1ccc2c(c1)N(C(=O)CCN(C)C)c1ccccc1CC2` [CBK262972C] is 65.1676; for `CN1CCC(C(=O)NC(=O)NCCOc2cccc3ccccc23)CC1` [CBK051100] it is 74.0261.
To `CC(=O)Nc1ccc(S(=O)(=O)NC2(C(F)(F)F)C(=O)Nc3c2c(=O)[nH]c(=O)n3CCc2ccccc2)cc1` (stereo not drawn) [CBK267937] belongs 94.8785.
For the compound `Cc1cc(Br)c(O)c(C(=O)N(C)CC(=O)Nc2cc(C)on2)c1` [CBK306002], the “% of control remaining” value came out at 79.6541.
As to `Cc1nn(C(C)CC(=O)NCCN2CCc3ccccc32)c(C)c1C` (stereo not drawn) [CBK282675], the “% of control remaining” value came out at 108.117.
To `O=C(Cn1cccc2cc(-c3ccc(F)cc3)nc1-2)N1CCOCC1` [CBK284809] belongs 104.452.
The figure for `COc1ccccc1N(CC(=O)Nc1c(C)cccc1C)S(=O)(=O)c1ccc(C)cc1` [CBK264810] is 111.366.
The figure for `N/C(=N\OC(=O)CSc1ccccc1)c1ccccn1` [CBK266056] is 99.8317.
As for `COC1CCC(C(=O)N2CCC(COc3ccc(-c4ccc(S(C)(=O)=O)cc4)cn3)CC2)CC1` (stereo not drawn) [CBK161995], the “% of control remaining” value stood at 65.3809.
To `CC1CCN(S(=O)(=O)c2cccc3c(S(=O)(=O)N4CCC(C)CC4)cccc23)CC1` [CBK262071] belongs 84.0462; to `COc1cc(-c2cnc3cccnc3c2N)cc(OC)c1OC` [CBK081190], 80.2475; to `O=C(O)CCC(=O)Nc1ccccc1C(=O)NC1CCCCC1` [CBK267674], 81.8957.
The figure for `Cc1ccc(OCC(=O)N2CCN(C(=O)c3cccs3)CC2)c([N+](=O)[O-])n1` [CBK297152] is 70.2552; for `Cn1c(SCC(=O)Nc2cc(C(C)(C)C)no2)nnc1-c1ccc(C(C)(C)C)cc1` [CBK297133] it is 82.3166; for `CC(=O)Nc1ccc(NC(=O)Cc2n[nH]c(=S)n2Cc2ccccc2)cc1` [CBK296754] it is 99.2253.
The figure for `NC(=O)CSc1nnc(NC(=O)c2ccc(Cl)cc2Cl)s1` [CBK287627] is 124.615; for `Cc1cccc(CC(=O)N2CCC(Cc3ccc(-c4cccc(C)c4)cc3)(C(N)=O)CC2)c1` [CBK285798] it is 65.2988; for `COc1ccc(-c2nc(C#N)c(NCCN3CCOCC3)o2)cc1` [CBK265769] it is 94.6532.
In the case of `CSc1nnc(CC2CCN(C(=O)c3ccc(C)cc3F)CC2)n1C` [CBK306939], the “% of control remaining” value worked out at 81.1513.
To `O=C(CO)N1CC2(CCN(CCc3c[nH]c4ccccc34)CC2)c2ccccc21` [CBK131503] belongs 85.9284.
Turning to `COc1ccc2nc(NC(=O)c3ccc4c(c3)OCCO4)sc2c1` [CBK287572], the “% of control remaining” value came out at 100.25.
To `Cn1nc(C(C)(C)C)cc1NC(=O)CN1CCc2cncnc2C1` [CBK304934] belongs 45.8996.
With `O=C(NCc1cccnc1)N1CCN(c2ccccc2)CC1` [CBK155178], the “% of control remaining” value stood at 96.8898.
To `COc1ccc(-c2c3c(nc4sc(C(=O)N5CCOCC5)c(N)c24)CC(C)(C)CC3=O)cc1` [CBK131884] belongs 76.1861; to `O=C1Nc2ccc(S(=O)(=O)NCC(O)c3ccc([N+](=O)[O-])cc3)c3cccc1c23` (stereo not drawn) [CBK266745], 96.2907; to `Cn1cccc1C(=O)NCCNC(=O)c1cc2ccccc2[nH]1` [CBK297894], 61.0658.
Consider `COc1ccc(C)cc1-n1ccc(C(=O)N2CCSCC2)n1` [CBK305972], for which the “% of control remaining” value stood at 75.2896.
To `C/C(=N\NC(=O)CCC(=O)Nc1ccccc1C)c1ccc(O)cc1O` [CBK261946] belongs 106.135.
On to `Cc1cc(C(=O)N2CC3CCCC(O)(c4cccn4C)C3C2)c(C)[nH]1` (stereo not drawn) [CBK284514], for which the “% of control remaining” value is 95.1975.
The figure for `Cc1ccc(/C=C/C(=O)O)cc1S(=O)(=O)NCCO` [CBK264404] is 132.831.
To `Cc1ccc2oc([C@H]3CN(C(=O)C4CCN(C(=O)OC(C)(C)C)CC4)C[C@@H]3C(=O)O)cc2c1` [CBK001601] belongs 107.794; to `O=c1n(C(c2ccccc2)c2ccccc2)ccn1S(=O)(=O)c1ccc(Oc2ccccc2)cc1` [CBK106624], 93.9895; to `COc1ccc(CC(=O)N2CCCC(c3nc(C)c4c(n3)N(CC3CC3)CCC4)C2)cc1` (stereo not drawn) [CBK286228], 3.477.
Take `O=C(CNS(=O)(=O)c1cccc(Cl)c1)Nc1ccc(-c2nc3ccccc3s2)cc1` [CBK267178]: the “% of control remaining” value is reported as 115.429.
The figure for `CC1(C)CC(=O)c2c(O)cc(OCC(=O)c3ccc(Cl)c(Cl)c3)cc2O1` [CBK267573] is 96.8476; for `O=C1/C(=C/NCc2cccnc2)C(c2ccccc2)=NN1c1ccc([N+](=O)[O-])cc1` [CBK262911] it is 120.464; for `COc1ccc(C2(C(=O)NCc3cnc(C)cn3)CC2)cc1` [CBK149830] it is 95.8243.
To `CC(C)CN1CCCN(S(=O)(=O)c2ccc(-n3cnc(Cl)c3Cl)cc2)CC1` [CBK063017] belongs 93.5747.
Regarding `Cc1nc(SCC(N)=O)nc(C)c1CCC(=O)NCc1ccc(F)cc1` [CBK295201], the “% of control remaining” value is 108.916.
The figure for `O=C(O)c1cc(S(=O)(=O)Nc2nnc(C(F)(F)F)s2)c(F)cc1Cl` [CBK062022] is 101.199; for `CSCC[C@H](NC(=O)OC(C)(C)C)C(=O)NCc1csc(-c2ccccc2)n1` [CBK092345] it is 90.3426.
The figure for `CC(=O)N1CCc2sccc2C1c1ccccc1NCc1ccoc1` (stereo not drawn) [CBK286432] is 25.4444.
To `O=C(O)CCSC1=CCS(=O)(=O)c2ccc(Cl)cc21` [CBK013721] belongs 48.271.
`Cc1ccc(Nc2nc(N)nc(CSc3nccn3C)n2)cc1` [CBK266468]: the “% of control remaining” value is listed as 106.373.
The figure for `CCOC(=O)c1sc(Cl)nc1C(F)(F)F` [CBK026746] is 75.5397.
The figure for `C[C@@H]1CN(C(=O)OCCn2cccc2)C[C@H](C)O1` [CBK200123] is 96.098; for `CN1CCC(N(C)C(=O)Nc2cccnc2)C1` (stereo not drawn) [CBK156026] it is 102.701.
The figure for `O=C(Cn1cnc2ccccc21)N1CCc2[nH]c3ccccc3c2C1` [CBK281860] is 96.7066; for `CC(C)(C)c1cc(CN)c(C(=O)O)o1` [CBK266510C] it is 92.3732.
With `Cc1cc(NC(=O)OCc2cccnc2C)c2ccccc2n1` [CBK200129], the “% of control remaining” value was determined as 74.5671.
The figure for `NC(=O)CSc1nnc(-c2cccnc2)n1Cc1ccccc1` [CBK268672] is 81.7638; for `O=C(Cn1c(=O)oc2ccccc21)Nc1ccc(N2CCOCC2)c(Cl)c1` [CBK270079] it is 68.3046.
The figure for `O=C(NC1CCN(c2ncccn2)CC1)c1ccc[nH]c1=S` [CBK241695] is 102.925.
To `CCn1c(=O)c(C=Cc2cccc(Br)c2)nc2cc(C(=O)O)ccc21` [CBK295364] belongs 104.675; to `CCCNC(=O)c1ccc(C)c(S(=O)(=O)Nc2ccc(C)cc2C)c1` [CBK269084], 85.967.
Consider `O=C(NCC1CCCO1)C1CCN(C(=O)c2cccc(F)c2)CC1` (stereo not drawn) [CBK304633], for which the “% of control remaining” value is listed as 86.5866.
The figure for `COC(=O)c1ccccc1NC(=O)CC1Sc2ccccc2NC1=O` (stereo not drawn) [CBK269400] is 102.162; for `O=C1CSC2(C(=O)N(Cc3ccccc3)c3ccccc32)N1c1ccccc1` (stereo not drawn) [CBK092391] it is 117.56; for `O=C1CCC(=O)N1CCOc1nccnc1OC1CCN(Cc2ccccc2F)CC1` [CBK084337] it is 87.3685.
The figure for `O=C(NC1CCCCC1)c1cc(Br)cnc1NCCCn1ccnc1` [CBK076494] is 110.42; for `O=C(NCCNC1CCC(c2ccccc2)CC1)c1ccc(F)cc1` (stereo not drawn) [CBK266857] it is 69.3488.
To `S=C(NC1=NCCS1)Nc1ccccc1` [CBK016591] belongs 20.3086.
With `Clc1ccc(CN2CCC(Oc3cncc(OCCN4CCOCC4)n3)C2)cc1Cl` (stereo not drawn) [CBK084477], the “% of control remaining” value was determined as 48.5896.
To `CCCc1c(C(=O)N2CCN(C)CC2)cnn1-c1cc(Cl)cc(Cl)c1` [CBK107375] belongs 80.0169; to `CCc1cccc(CC)c1NC(=O)CN(c1cccc(Br)c1)S(C)(=O)=O` [CBK265986], 83.6515; to `COc1ccc(N2CCN(CC(=O)N3CCC(C(N)=O)CC3)CC2)cc1` [CBK268993], 101.853.
The figure for `COc1cc(/C=C2/NC(=O)N(c3cccc(Cl)c3)C2=O)ccc1OCC(=O)Nc1ccc(F)cc1` [CBK265691] is 98.1106; for `COc1ccc(/C=C(/NC(=O)c2cccc([N+](=O)[O-])c2)C(=O)O)cc1OC` [CBK263362] it is 113.975; for `Cc1cc(NS(=O)(=O)c2ccc(Nc3nc(-c4ccc(Cl)cc4Cl)cs3)cc2)no1` [CBK267298] it is 80.1051.
The figure for `Cc1nc(-c2cccs2)cc([C@H]2CN3CC[C@H]2C[C@@H]3CNC(=O)c2ccco2)n1` [CBK289127] is 86.0975; for `COc1cc(Nc2nc(-c3ccc4[nH]ccc4c3)cn3ccnc23)cc(OC)c1OC` [CBK038069] it is 128.431; for `O=C(Nc1cccc(-c2ccc3nncn3n2)c1)c1ccc(F)cc1` [CBK287682] it is 75.3736.
